# Laboratory results published in PubChem BioAssay AID1476 (National Center for Advancing Translational Sciences (NCATS), 2009).
# Hit rate of the full screen: of about 200,000 compounds, about 4,500 (2.2%) were called active. This list was built around the results that the source calls inconclusive (neither active nor inactive); the mix of calls is not that of the screen. Calls come from the whole dose curve; as a rule, active = well fitted inhibition curve with a large enough effect; inconclusive = small, poorly fitted or top-dose-only effect, or effect the other way; inactive = flat fitted curve, though single readings scatter. Potencies of inconclusive entries are doubtful fits and often do not repeat.
# Molecular target: Cruzipain (Trypanosoma cruzi) (UniProt P25779)
# Sequence of UniProt P25779 (P25779 whole entry, looked up): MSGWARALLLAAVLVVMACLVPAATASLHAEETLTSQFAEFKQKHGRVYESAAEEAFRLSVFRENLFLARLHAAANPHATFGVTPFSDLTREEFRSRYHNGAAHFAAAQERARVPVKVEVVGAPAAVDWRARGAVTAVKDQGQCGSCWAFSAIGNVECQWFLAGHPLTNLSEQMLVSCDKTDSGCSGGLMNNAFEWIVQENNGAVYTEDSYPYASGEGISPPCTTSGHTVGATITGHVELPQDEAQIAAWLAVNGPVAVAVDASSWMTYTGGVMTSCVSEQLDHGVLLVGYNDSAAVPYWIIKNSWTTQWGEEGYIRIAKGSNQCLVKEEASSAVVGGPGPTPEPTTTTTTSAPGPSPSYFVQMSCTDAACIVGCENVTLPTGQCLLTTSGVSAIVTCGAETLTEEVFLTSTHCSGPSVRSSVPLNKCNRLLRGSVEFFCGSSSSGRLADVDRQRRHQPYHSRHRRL
# Test: qHTS Assay for Promiscuous and Specific Inhibitors of Cruzain (without detergent); note: nearly all actives have a fitted effect of over 40% in size;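 for max response, negative = inhibition: plate controls were enzyme without inhibitor for no effect and buffer without enzyme for full effect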
# Details: purified cruzain, Z-FR-AMC fluorescence, no detergent
# How it was run: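 Purified cruzain at 1.5 nM, pre-incubated 15 min with compound at room temperature in 100 mM sodium acetate pH 5.5, 5 mM DTT, 0.00005% Triton X-100. Reaction started with 2 uM Z-FR-AMC; AMC fluorescence increase over 60 s gives rate.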
# Potency is the fitted concentration of half-maximal effect; tags give direction and shape of the fitted curve.
Structure (SMILES),Potency,"max response, negative = inhibition"
O=C(Nc1ccccc1)OC1CCC2CC1CCC2OC(=O)Nc1ccccc1 (configuration not stated),"inconclusive: 39.8 µM [inhibitor, single point]",–
N#Cc1c(-c2ccccc2)c(-c2ccccc2)n(Cc2ccco2)c1NC(=O)c1cccs1,"inconclusive: 15.8 µM [inhibitor, partial curve, poor fit]",–
c1ccc(N2CCOCC2)c(Nc2nc3ccccc3n3cnnc23)c1,"inconclusive: 39.8 µM [activator, single point]",–
Cc1ccc(NC(=S)NNC(=O)c2nn(C)cc2Cl)cc1,–,inactive: -1.44%
N#Cc1c(NCCN)nc(-c2ccccc2)c2c1CCCC2,"inconclusive: 39.8 µM [inhibitor, single point]",–
O=C(NCc1ccc(Cl)cc1)c1ccc2c(c1)nnn2C1CCCC1,–,inactive: -10.2%
CC(Oc1ccc(C(C)(C)C)cc1)c1ccnc2nc(/N=C/N(C)C)nn12 (configuration not stated),"inconclusive: 31.6 µM [activator, partial curve]",–
CCN(CC)S(=O)(=O)c1cccc(NC(=O)c2cc(-c3cccs3)nn2-c2ccccc2)c1,"inconclusive: 39.8 µM [inhibitor, single point]",–
O=C(NCC1CCCO1)c1cc2n(n1)C(C(F)(F)F)CC(c1ccc(F)cc1)N2 (configuration not stated),"inconclusive: 15.8 µM [activator, partial curve]",–
Cc1cc(C)nc(SCc2ccc(C(=O)N/N=C/C3CCCCC3)cc2)n1,"inconclusive: 20 µM [activator, single point]",–
CC(C)n1cc(/C=N/NC(=O)COc2cccc3cccnc23)c2ccccc21,"inconclusive: 39.8 µM [activator, single point]",–
CN1C(=O)c2ccccc2Sc2ccc(NC(=O)Cc3ccc(Cl)cc3)cc21,–,inactive: 14.1%
COc1cccc(C(c2sc3nc(-c4ccco4)nn3c2O)N2CCC(C)CC2)c1 (configuration not stated),–,inactive: 0.33%
COC(=O)N[C@@H](CCc1ccccc1)[C@]1(C(=O)OC)CCCC1=O,–,inactive: 1.13%
CC(=O)Nc1ccc(S(=O)(=O)NCCc2csc3nc(-c4ccc(Cl)cc4)nn23)cc1,–,inactive: 29.9%
CCOc1ccc(OCC)c(NC(=O)c2cnn(-c3ccc(F)cc3)c2-n2cccc2)c1,"inconclusive: 25.1 µM [inhibitor, partial curve, poor fit]",–
COc1cccc(Cn2c(=O)c(CCc3ccccc3)nc3cnc(OC)nc32)c1,"inconclusive: 39.8 µM [activator, single point]",–
CCCN1CCN(c2nnc(-n3cccc3C(=O)Nc3ccccc3C(F)(F)F)s2)CC1,–,inactive: -4.73%
COc1cc(NC(=O)NCCc2c(C)nn(C)c2C)cc(OC)c1OC,–,inactive: 12.5%
CCn1cc(C(=O)NCc2ccc(OC)cc2OC)c(=O)c2ccc(C)nc21,"inconclusive: 39.8 µM [activator, single point]",–
O=c1c2sc3ccccc3c2n(Cc2cccc(Cl)c2)c(=O)n1Cc1ccccc1,"inconclusive: 3.98 µM [inhibitor, partial curve]",–

Structure (SMILES),Potency,"max response, negative = inhibition"
Cc1cccc(C(=O)NCCc2nc3ccccc3n2CCC(C)C)c1,–,inactive: 20.4%
CCCCn1cc2c(c1-c1ccc(Br)cc1)c(=O)n(C)c(=O)n2C,"inconclusive: 39.8 µM [activator, single point]",–
Cc1cccc2c(=O)cc(CSc3ccccc3NC(=O)c3cccc(Cl)c3)[nH]c12,–,inactive: -17.6%
CCOC(=O)c1cccc(NC(=O)CCc2c(C)nn(-c3ccc(N4CCCCC4)nn3)c2C)c1,"inconclusive: 31.6 µM [activator, single point]",–
COc1ccccc1NC(=O)c1ncn(-c2ccccc2)n1,–,inactive: -2.69%
CCCCN1C(=O)c2[nH]nc(-c3ccccc3O)c2C1c1ccc(OCc2ccccc2)c(OC)c1 (configuration not stated),"inconclusive: 39.8 µM [inhibitor, single point]",–
O=C(Nc1ccc(Cl)c(Cl)c1)Nc1nnc(CC2=CCCCC2)s1,active: 25.1 µM,–
COc1ccc(/C=C/C(=O)N2c3ccccc3Sc3ccc(C(F)(F)F)cc32)cc1,"inconclusive: 10 µM [inhibitor, partial curve]",–
CC(C)(C)c1ccc(-c2nc3c(C#N)c(-c4ccc5c(c4)OCO5)ccn3n2)cc1,"inconclusive: 12.6 µM [inhibitor, partial curve]",–
Cc1nn(-c2ccccc2)c2nc(C3CC3)cc(C(=O)Nc3cccc(F)c3)c12,"inconclusive: 25.1 µM [inhibitor, single point]",–
CNC(=O)c1cc2ccc(OC)cc2oc1=O,"inconclusive: 15.8 µM [activator, partial curve]",–
COc1cccc(NC(=O)c2oc3ccccc3c2NC(=O)c2ccccc2C)c1,"inconclusive: 39.8 µM [inhibitor, single point]",–
Cc1sc(/N=C/c2ccccc2O)c(C#N)c1C,"inconclusive: 31.6 µM [inhibitor, single point]",–
O=C(Oc1ccc2c(c1)O/C(=C\c1ccncc1)C2=O)c1ccccc1,–,inactive: 6.83%
COC(=O)c1ccc2ccn(CC(=O)NC3CCCCC3)c2c1,"inconclusive: 31.6 µM [inhibitor, single point]",–
Cc1cccc(OCC(=O)NCC(=O)N/N=C/c2cc(Br)ccc2OCc2ccccc2)c1,"inconclusive: 39.8 µM [inhibitor, single point]",–
COc1ccc(Cl)cc1NC(=O)COC(=O)/C=C/c1c(C)nn(C2CCS(=O)(=O)C2)c1Cl (configuration not stated),"inconclusive: 31.6 µM [activator, single point]",–
Cc1ccc(S(=O)(=O)N(CC(=O)Nc2cccnc2)c2cc(Cl)ccc2C)cc1,"inconclusive: 39.8 µM [activator, single point]",–
CCCc1cc2c(n1CCc1ccc(Cl)cc1)C(C)C1CN(C(=O)c3ccccc3)C(C)(C(=O)OC)C21 (configuration not stated),"inconclusive: 39.8 µM [activator, single point]",–
O=S(=O)(c1ccc(Br)cc1)N1CCn2c(nc3ccccc32)C1,active: 5.01 µM,–
Cc1ccc(-n2nc(C(=O)N(C)c3ccc(C)c(C)c3)c3c4ccccc4n(C)c3c2=O)cc1,–,inactive: -18.3%
